The record followed here is PMC6919601, “Identification of Plasmodium dipeptidyl aminopeptidase allosteric inhibitors by high throughput screening” (PLoS ONE, 2019).

Each structure is given as a SMILES string. Hit rate of the full screen: of about 110,000 compounds, about 230 (0.21%) showed an effect of 50% or more. Some of the results follow.
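Note: 30 min substrate incubation versus DMSO and 10 µM JCP410 controls.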

For this assay, the target named is DPAP1 (Plasmodium falciparum, UniProt Q8IIJ9). The assay is described as follows: primary screen, percent inhibition; read by cleavage of a fluorogenic dipeptide substrate; higher = more effect of the substance. Set-up: species or system P. falciparum D10 trophozoite lysates; single well.
Chain of DPAP1 (Q8IIJ9 whole entry, looked up): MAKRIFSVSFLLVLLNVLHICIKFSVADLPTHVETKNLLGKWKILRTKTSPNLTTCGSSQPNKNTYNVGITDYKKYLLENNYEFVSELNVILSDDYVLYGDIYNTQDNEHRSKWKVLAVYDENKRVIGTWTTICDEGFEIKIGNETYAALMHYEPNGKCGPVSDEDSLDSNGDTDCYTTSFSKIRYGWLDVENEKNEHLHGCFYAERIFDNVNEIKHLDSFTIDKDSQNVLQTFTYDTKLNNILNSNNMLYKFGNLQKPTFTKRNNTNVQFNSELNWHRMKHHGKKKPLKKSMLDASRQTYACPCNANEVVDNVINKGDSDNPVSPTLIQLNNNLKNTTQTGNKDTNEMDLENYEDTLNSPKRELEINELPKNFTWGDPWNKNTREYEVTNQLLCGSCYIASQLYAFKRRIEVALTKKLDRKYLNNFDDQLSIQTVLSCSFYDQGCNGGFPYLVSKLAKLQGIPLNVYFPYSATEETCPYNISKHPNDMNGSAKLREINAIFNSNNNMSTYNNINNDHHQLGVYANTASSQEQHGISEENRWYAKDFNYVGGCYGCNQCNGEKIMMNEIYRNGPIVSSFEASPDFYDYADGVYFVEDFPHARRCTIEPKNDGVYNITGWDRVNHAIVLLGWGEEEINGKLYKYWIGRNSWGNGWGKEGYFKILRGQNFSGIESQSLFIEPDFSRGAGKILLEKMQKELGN
For the compound `CCOC(=O)c1[nH]c2ccccc2c1NC(=O)c1ccccc1C`, the “% Inhibition @ 10 uM” value is on record as -1.29%.

Turning to `CCOCCCn1c(=N)c(S(=O)(=O)c2ccc(Cl)cc2)cc2c(=O)n3ccccc3nc21`, the “% Inhibition @ 10 uM” value was -1.52%.

Consider `O=CN1CCN(Cc2ccccc2C(F)(F)F)CC1`, for which the “% Inhibition @ 10 uM” value is recorded as -7.35%. As to `Cc1cccc(CCNC(=O)c2cccc3c2C(=O)N(C2CCCCC2)C3)c1`, the “% Inhibition @ 10 uM” value is given as 2.9%. For `Cc1cccc2sc(NC(=O)c3ccc(Br)o3)nc12`, the “% Inhibition @ 10 uM” value is -3.92%. With `Cc1ccc(NC(=O)c2cccc(S(=O)(=O)Nc3cccc(C(=O)O)c3)c2)cc1`, the “% Inhibition @ 10 uM” value came out at 1.63%.

For the compound `c1ccc(CNc2cc(-c3ccccc3)nc(-c3ccccc3)n2)cc1`, the “% Inhibition @ 10 uM” value is 6.6%. As for `Cc1ccc2c(c1)C(=O)N(c1ccc(O)cc1)C2=O`, the figure is 1.89%.

On to `CC(C)C(C(=O)O)N1C(=O)C2C3C=CC(C2C1=O)C1C(=O)N(C(C(=O)O)C(C)C)C(=O)C31` (stereo not drawn), for which the “% Inhibition @ 10 uM” value was 4.17%.

With `CN(Cc1ccco1)C(CNS(=O)(=O)c1ccccc1)c1ccccc1` (stereo not drawn), the “% Inhibition @ 10 uM” value was -0.671%. As for `CCOC(=O)C(C(N)=O)c1nc(-c2ccccc2)cc(-c2ccccc2)n1` (stereo not drawn), the “% Inhibition @ 10 uM” value is given as -0.949%.

As to `CC(=O)c1c(O)cc(C)o/c1=N\c1ccc(C)cc1C`, the “% Inhibition @ 10 uM” value is -1.64%. On to `c1ccc(N2CCN(Cc3cccnc3)CC2)cc1`, for which the “% Inhibition @ 10 uM” value is -4.35%. For `CCOc1ccc(C(=O)Nc2ccccc2C(N)=O)cc1`, the “% Inhibition @ 10 uM” value turned out to be 4.3%.

Regarding `CCc1nnc(NC(=O)CSc2nnc(NC(C)=O)s2)s1`, the “% Inhibition @ 10 uM” value is reported as 29.2%. Consider `Cn1c(C(N)=O)cc2ccccc21`, for which the “% Inhibition @ 10 uM” value came to 1.63%.

As to `CCOC(=O)c1sc2cccc(F)c2c1N`, the “% Inhibition @ 10 uM” value is -3.78%. For the compound `Cc1ccc(S(=O)(=O)N(CC(=O)NCC2CCCO2)c2cccc(Br)c2)cc1` (stereo not drawn), the “% Inhibition @ 10 uM” value came out at 8.19%. In the case of `Cc1ccc(NC(=O)c2ccccc2N(C)S(C)(=O)=O)cc1C`, the “% Inhibition @ 10 uM” value was 1.94%. As for `COC(=O)c1ccc(NC(=O)c2ccc(Br)cc2)cc1`, the figure is -2%; as for `Cc1nc(-c2ccccc2)cc(N2CCCC2)n1`, -3.26%; as for `O=C(Nc1ccncc1)c1cccc(COc2ccc3ccccc3c2)c1`, -3.13%. As for `O=C(NCCc1ccccc1)C1CCN(S(=O)(=O)c2ccc3[nH]c(-c4ccccc4)nc3c2)CC1`, the “% Inhibition @ 10 uM” value is listed as -1.97%. Turning to `Cc1nn(C)c2c1c(-c1ccccc1)cc(=O)n2Cc1cc(=O)n2ccccc2n1`, the “% Inhibition @ 10 uM” value is -0.795%.

On to `O=C(NCCC1=CCCCC1)C1CCN(S(=O)(=O)c2ccc(Br)s2)CC1`, for which the “% Inhibition @ 10 uM” value is on record as -4.53%. With `Clc1cccc(CCNC2CCN(Cc3ccccc3)CC2)c1`, the “% Inhibition @ 10 uM” value is on record as -2.91%. In the case of `COc1ccc(-c2c(C)nn3c(-c4cccs4)cc(C(F)(F)F)nc23)cc1`, the “% Inhibition @ 10 uM” value was determined as 3.61%. For `Cc1nn(C)cc1CN(C)C(=O)c1cc2nc(-c3ccc4c(c3)OCO4)cc(C(F)(F)F)n2n1`, the “% Inhibition @ 10 uM” value was -0.519%. In the case of `O=C(Cc1cccs1)NC1CCCCCC1`, the “% Inhibition @ 10 uM” value was -4.39%. With `CCCN1C(=O)c2oc3cc(C)cc(C)c3c(=O)c2C1c1ccccc1F` (stereo not drawn), the “% Inhibition @ 10 uM” value was found to be 0.00706%. For the compound `NS(=O)(=O)c1ccc(Cc2ccc(S(N)(=O)=O)cc2)cc1`, the “% Inhibition @ 10 uM” value is reported as 0.774%. `CCOc1ccc(-c2cc(C(=O)N3CCC4(CC3)OCCO4)c3ccccc3n2)cc1`: the “% Inhibition @ 10 uM” value is reported as -2.26%. On to `COc1ccc2cc(-c3nc4cccnc4[nH]3)c(=O)oc2c1`, for which the “% Inhibition @ 10 uM” value is listed as -2.41%. `COc1ccc2c(CNCCc3ccccc3Cl)c(C(=O)O)[nH]c2c1`: the “% Inhibition @ 10 uM” value is -0.397%. As to `Cc1nn2c3ccccc3nc2c2ccccc12`, the “% Inhibition @ 10 uM” value is reported as 5.3%. Take `Fc1ccccc1N1CCN(Cc2ccc(C(F)(F)F)cc2)CC1`: the “% Inhibition @ 10 uM” value turned out to be 2.23%. On to `C=CCC(C=C)S(=O)(=O)c1ccc(C)cc1` (stereo not drawn), for which the “% Inhibition @ 10 uM” value is listed as 1.03%.

In the case of `Cc1nnc(SCC(=O)NCCc2cccs2)c2nn(-c3ccccc3)c(C)c12`, the “% Inhibition @ 10 uM” value came out at 1.55%. With `Cc1ccccc1NC(=O)C1CC=CCC1C(=O)O` (stereo not drawn), the “% Inhibition @ 10 uM” value stood at 2.22%. Regarding `COc1ccc(S(=O)(=O)N2CCN(c3ccccc3)CC2)cc1Br`, the “% Inhibition @ 10 uM” value is -6.36%. Regarding `Clc1nc(NCc2ccco2)nc(N2CCCCC2)n1`, the “% Inhibition @ 10 uM” value is given as -3%. Turning to `CC1CCN(c2c(NCc3ccc(C(=O)NCC4CCC(C(=O)O)CC4)cc3)c(=O)c2=O)CC1` (stereo not drawn), the “% Inhibition @ 10 uM” value was -0.522%.

Take `NC(=O)C1CCCN(C2CCN(Cc3ccccc3)CC2)C1` (stereo not drawn): the “% Inhibition @ 10 uM” value is -5.11%. Regarding `O=C(NC1CCC(NC(=O)c2ccccc2Cl)CC1)c1ccccc1Cl` (stereo not drawn), the “% Inhibition @ 10 uM” value is reported as -1.44%. In the case of `CCOC(=O)C1=CN(C)C=C(C(=O)OCC)C1c1ccsc1`, the “% Inhibition @ 10 uM” value was -3.23%. As for `COc1ccc(CN2CCCC(O)C2)cc1Br` (stereo not drawn), the “% Inhibition @ 10 uM” value is given as -6.21%.

`CCOC1=CC(=O)N(c2ccc(C)cc2)C1`: the “% Inhibition @ 10 uM” value came to 4.88%. Consider `Cc1ccc2[nH]c3c(c2c1)CCC/C3=N\O`, for which the “% Inhibition @ 10 uM” value is listed as -1.45%.

On to `CC(C)c1cc(C(=O)NCc2ccc(Cl)cc2)no1`, for which the “% Inhibition @ 10 uM” value is on record as -4.43%.

For `Cc1cc(=O)n2nc(N3CCCC(C(=O)NCC(C)c4ccccc4)C3)sc2n1` (stereo not drawn), the “% Inhibition @ 10 uM” value is reported as -5.63%. The same measure for `COc1ccc(NC(=O)c2ccc(C(C)(C)C)cc2)c(C)c1`: -10%.
